Measurements published in PMC10726135.
Some of the results follow. At the low end of the ranking, values are background and their order means little. The protein was read in a cell extract, so binding may be indirect.

Molecular target: T1, HNF4alpha2 (COS-7 nuclear extract) (UniProt P41235)
T1 sequence: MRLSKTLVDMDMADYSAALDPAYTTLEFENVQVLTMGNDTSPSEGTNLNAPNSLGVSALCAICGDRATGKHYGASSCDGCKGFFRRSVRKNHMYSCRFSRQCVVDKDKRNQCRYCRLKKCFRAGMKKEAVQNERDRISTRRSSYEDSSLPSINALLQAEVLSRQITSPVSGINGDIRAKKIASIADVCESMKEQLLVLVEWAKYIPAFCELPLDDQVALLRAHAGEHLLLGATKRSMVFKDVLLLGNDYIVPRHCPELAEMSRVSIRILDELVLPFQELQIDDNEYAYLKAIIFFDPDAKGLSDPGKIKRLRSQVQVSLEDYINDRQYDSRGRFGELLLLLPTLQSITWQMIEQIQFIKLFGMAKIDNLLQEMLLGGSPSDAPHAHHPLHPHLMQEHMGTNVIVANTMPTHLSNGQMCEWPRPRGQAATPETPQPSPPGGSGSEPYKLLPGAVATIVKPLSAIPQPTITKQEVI
Experiment: protein-binding microarray
Conditions: COS-7 nuclear extract on double-stranded Agilent 4x180k PBM; binding buffer, salt, pH and temperature not given; high values mean tight binding; double strand, one strand shown; sequences stand for … in …GCCTAGGGAGATTAGAGTATCGGTCGA

Sequence	binding signal (log2 normalized intensity)
AGGTGAAACTCCAGGCTCCAAGGGTATAGG	-1.29
ATGGGGAGCAGTGGGAGGTGAGGAAAACGG	-0.65
CACCCAGGCTGAAGTCCAGTAGCTCAATCA	-1.1
AAGGCACAATCAGGGCTAAAGTCAGGGGCA	-1.19
AGCTGGCCTCACTAAGTCCTGCTTAGAGCA	-1.14
ACGTCTAGAGCTGTCCAGCAGACAATGGGA	-0.938
GATAGTAAAATGGACTTTGTGGGCCAAAAG	2.49
CAAGCCAGAAAGATGTTTGCCCCAAGATAA	1.94
ACTCAGGCATTCTGACCTTTGTCTCCAGGC	5.69
CACACTCACAGAACACAGTGTTTGCTTTAG	-1.11
TCATACCACATGGATGGATTCAGATCCAGT	-0.961
GGAAAGAACAGGTCAAAGGTCAGTTTCTTT	7.28
TCTGATGCGGCTTCTCATACTACTGTACTT	1.01
GTGCACCCTGGTCTCTCTTACCCAACCAAA	2.82
AAGGGTAATCTGCTTTTCTCGAAGCCAACT	-1.07
AGTCTGTTATCCCTAGGAAGGATAAGAGCA	-0.509
GCCTCCCCCTCTTTATCTCCTGGAATCCAA	2.25
TACCTTTCTTATCATAAGTAAAAAGAGAGA	0.794
TAACAATGCTGATGGGGACCACAGAGAACT	-1.12
TCTCTGCCCTCTTCCCTCTACCTCTGTTCT	2.16
GCCAGGCAGGAAGGAGCCTGCTTTGCTGAG	-0.938
GAACATGGACTTTGAACCTCTCTTCTTTTT	7.25
CTCGGGGAGCTGTGGGCCTCACACCCTCTA	-1.22
CATGGACTTTGAACCAAGATATGCTAACAT	4.81

Sequence	binding signal (log2 normalized intensity)
TCTTATCACCATCCCTGTTGCCTCATCTGA	0.899
AGTGACTCAGAGCATATGTTGACCCGAGTG	3.17
GCTGACCTACATTCCACCCTCATTTGCTTG	0.587
AGCATCACCAGTGCAGCTGACCTACATTCC	-0.443
TCACTGTAACCTTTGCCCCCCAAGTTGAAG	6.72
GCCTTATCACCATTCAGATAAATGGTGTAG	-1.21
TAAATGCCTCCCCCTCTTTATCTCCTGGAA	2.73
CTGAGTCTGATAAGGAAGATAATGGGTCCG	1.01
CAGAGGTTTCGCAAGGACGTGACCTTTATG	4.35
CACACTGTACCCGTCCACCTTTGGATCCAG	2.76
CTATTCTCAGTGATATAAAACCTTTTTCTG	0.697
TGACCTTTAGCCTGGCCATTTCTCAGGTTG	3.69
TCCACTGAAAATGCCAAGTTTCAGGCTATG	-0.635
TAACGCCCGCCTAACCTTGAGGAGCCCTAT	-1.21
TTTGTCCCCCACCTGTGAAGATAAGCTGTC	3.24
GAAAGTGAGGCCTGGCCGAGGTTGCCCAGC	-0.404
GCATCCTTCTCCTCCCCTCCCCCCAGTTCC	5.71
AAATGAAAACACAGCTCACCACCTAGTAAA	-1.01
ACTGGCTAAATCCCACCAAAGCCATGAGGC	0.562
GAAACTGTTTCCAATAGGTTTGATTTCAGC	-1.07
CCTCTAACTATGCAGTGTCCATGGTGACCA	1.56
AATGACTTGCCCAAGGGCATGGGAAGCAGT	-1.06
GCTGAACCTAGAGCTTCAGACGCCCTATGG	-1.19
GTGCTCTCAGATAAGAGATGAGGAACTTGT	-0.0712

Sequence	binding signal (log2 normalized intensity)
GAATCTCAGGAGTGATGCCAGAAGATTAGT	-0.634
CTGTTTCAAAACTACAAAGTGGTTTTCTTG	1
CAAGTACCCTTTATCCCTCACAATCTTAAG	1.31
TACTCTCATCACTTAGGATATTCCAAGGGG	-0.378
TACCAAAGACTGAGCAGCTGGAGGGGGACT	-1.12
CTTTTGCTGACATGCTCTTGGAATGTTGAA	1.09
GGAACGCGCGGGCAGGTTGCCCTTTCGGTG	3.35
CACACCGAGCACGGTGCAGGGAGGATATCC	-1.16
GGCAGCTTCAGGATGAAGGCTGCTGCCTGA	-1.1
TTTGAAGAAGACAAAACAGCGTACTGTGCT	-1.2
AGGTCACTCTTGCTAAGCTTTAGCAAAGAA	-0.626
TCCTCCAGCCCTCCTCTCTGTAGTCCTCAG	1.07
GTAGGAGGAGATTGATGGTTTTATCAGCTG	-1.16
AAATCTTCTTTAAGCTATGTGGTGGAATGG	2.23
TACTCAGCTAATCTAGAGACACTATGTGCA	-0.721
CCAAGGCTTCCAATCCTGGAGAAGGAGCAC	-1.11
TGGATCGGGATGATCAATGTGTAGTTTCAC	1.04
TTCCACCTCCCTCCATGCTGTAGATTGTGG	1.52
TAGTCAGATTCCTCTGAGTCCTCTTCCCAA	-0.656
TATGGACAATGAAATTCAGGCTGAGGTGCT	-1.18
CAGATAATTACCTGGACTCTAGAGCCAGAC	0.764
CAAATGATCAAAGGTCGGTTTTAGGACAAC	4.69
CTTTGCCCCAGAGGAAGACATCATATTTGT	1.28
GTCCAAAGGTAAAAACTGGCTCTTATTTTT	0.264

Sequence	binding signal (log2 normalized intensity)
AGGCCGGAGGTCTGGAATGTGGAGAATGGC	-1.22
TCTCTCCTGGTTTGGGGCCTAAATGCTTCT	0.749
ATTTGTGATCTGGCACAAATTCTAGATTCA	-1.08
AAACACCTAGAGTTACAGTCACTCCCTATC	-1.12
AACCTGTTGGGTCAGGCTGCTCAGCTGCCT	-1.15
CCAGCCTGGCCTCTAGAGTGGTTGCCTGTG	-0.807
CAGTCGATCTTTGACCGCTGCCTCCCACCC	3.94
TTTGAAAGAAAGAGACCTTTACCCTGACCT	3.55
TTCATTAAAAAAAAAAAAAAATACTCCTAT	-1.07
GGGACTGCAAGTACGATTGGCTGGACATCT	-1.06
GTACCAAAATCACACTGGGAATTGGGATGG	-1.08
TACCATGTCCTGTGATTAAGGTCAATGGGA	2.07
TGGGGTACTTGAACCCTACTCATAATTGCT	-0.0331
CAGTTCAAAAGTTCAAAGATATGATGGCCA	1.79
ATCCACAAAGATAAGAAAAAAACAGCACAA	-1.03
AACCCAAGGCCAAACACGGACAGGCAGGCC	-1.14
TTGACCTCTCTCTCCTAACTATGGTCACGC	2.37
CTGCACTGACCTTTACCCATTCCTTAGTGC	4.37
CATCCATATCATTAGTCTCTGCTGGCTTTC	0.888
TTAGTTTCTTTACCATGTGTTGGCACTTTG	1.43
ACTTAGCTCTTTAGGAATGCAACTCTAACC	-1.06
ACACTGGGCTAGAGGTCTTAATCTTTTTAC	0.69
CGCAGCCGCGCTCCGCCCCGTTCCCGGCAG	-1.17
GGCCAAGGGATTTCAGTGCCCTCATAAGAG	-1.05

Sequence	binding signal (log2 normalized intensity)
AATTAGCTTGAGCGAGACAGCGGGTGTTTC	-1.12
TCAGCAGTTGTTCAAAGTCCATGTGTTAAA	4.35
AATAGGGTGACAGTATCAAAGTCCCCAGAT	2.12
GAATATTTAAGATTCCAGCTCTCGGATCCT	-1.17
ACATGATGTCAGTTTGACTCCAAAGGGCTG	-0.999
GATATTTTTCAGACCTTGCATTCTGAGGAA	-1.02
GTCCAAAGTCTTTGTTCCTAGCCACCATGC	0.798
ATCCTCATTGTGTGCAGACCTTCTCTGGCC	1.23
TAAAACTGCAGATTGACTCAGGCATTCTGA	-0.529
ATTCTAGAGGTCAGAAGTCCAAAATCAGTC	3.83
GGCTTCGTCCCTGGGGCCCCACTGGGGTGG	-0.964
TATTAAATGGAATACTTGCCTAAGGTCAAT	1.44
TCTGCCCCCTACACAGAGGAGCGACCCAGG	2.83
CTTGGTATCAGCTTTGAGACACCTGGCCAA	-0.971
AGAGGCCAATTTCTTGTCTGGTCCGAAGGT	1.56
CTTATCTACTTTAAGATTTGACCCTTGGCC	7.08
GGGAATTCAAGGAATGCAGCTCAGACTGCT	-1.22
GCATGGTGCTTCGCACTTCAGCACCATAAA	0.242
TTTTAGAATTAACTAAAAGTATCTAAGGGC	-1.06
TTGCCTCATGTTTGCAGAATGGCTGATGTA	1.73
ATTCCGGCCGTATCAGAAGAACTGCACTGT	-0.304
AAAGGCAACATCTTGAGCCAGGAATGCAAG	-1.11
AGGCTCAGAGGTCAAGTCACTGCTCAAAAA	0.902
GACTCCTCCCTCAGCCTGAACCTCTGTCTC	0.818

Sequence	binding signal (log2 normalized intensity)
GCCATCTGGTGGACTTTGCTCTGCTCATTT	6.26
TAGCAACCAAGTACCGCAAACAAGGTGGCT	-1.08
ACTTTGTAGCTCAAACAGTCTAAAAACCAT	-1.17
ACTTTGACTTCCATTGTGTTGCAGATGATC	1.63
TTGGTACCTCCCCCCACACCATTAGAGAAC	5.39
CTTTGAGAAAGCAAAGTCCCTGGGGACAGG	-0.0595
GGAATGAATCAGAATTTGGAGAATTCAGAC	-1.09
CTGGATTCTCAAACCTTCCAAAGTTCAACC	3.18
ACACACACACACACACACATTGCAGTATGC	-1.13
CTCCCCCACCACTGCTTCCTGCCCCCTGTG	5.91
TCATGTTCAATATACAGTTGGTATTTAGTA	1.83
GCCCTACAGCTCCTGAGTCCACATGAGCCT	-0.819
AGCAAAAAGTTTGGACTAGCCACAGGGGAA	-1.12
AACAGCCCCATGAGATAGGTACTATTATTA	-0.144
CTGGCCATGCCCCAGATGCCCAGCAGAGGG	-0.881
CCCTAATTACATATTAACCTTTGCCCCAGC	6.63
AGCAAACAATGATGAAAGGAGCTTGGGAAG	-1.18
GTTTCACCCTGAGGAATCCCATTCCCTCTA	-0.941
CTGGGCAGATAACAGCGAACATGAGGAATA	-0.76
AAGAGATAAAAGAGAAGATAATGGATTGGG	-0.492
GTGAGGTCACAGTATTCATTCCCCTAGTAT	2.55
AGCAGGACACCAAACAGACCTCCCCCAACT	3.87
GGACACAAAGAGTTCAGAGAGGGATTAAAG	-1.14
